Assay results as given in PubChem BioAssay AID1346428 (National Center for Advancing Translational Sciences (NCATS), 2018).
The campaign covered roughly 48,000 compounds. About 1,200 (2.5%) were called active. Another 2% or so got no clear call; they are omitted.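 The calls were made as follows: active = activation of at least 60% and not above a set upper limit (about 1 call in 100 departs from these limits); inconclusive = activation of 40% to 60%, or above that upper limit; inactive = activation under 40%.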 The list shows a part of the results.

These molecules were tested against Probable G-protein coupled receptor 32 (Homo sapiens) (UniProt O75388) (assay: qHTS for Agonists of Human Resolvin D1 Receptor DRV1). Settings: CHO-K1 GPR32 beta-arrestin PathHunter luminescence, 90 min; at 76.9 µM; stronger effect = higher value; zero percent set by DMSO-only wells.
In short: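 Engineered CHO-K1 line co-expressing GPR32-ProLink and EA-beta-arrestin. Compound treatment lasted 90 min at 37 °C. Luminescence was recorded after 1 h with substrate at ambient temperature, relative to DMSO basal wells.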
Also: 0% is about no effect.

Sequence of UniProt O75388 (O75388 whole entry, looked up): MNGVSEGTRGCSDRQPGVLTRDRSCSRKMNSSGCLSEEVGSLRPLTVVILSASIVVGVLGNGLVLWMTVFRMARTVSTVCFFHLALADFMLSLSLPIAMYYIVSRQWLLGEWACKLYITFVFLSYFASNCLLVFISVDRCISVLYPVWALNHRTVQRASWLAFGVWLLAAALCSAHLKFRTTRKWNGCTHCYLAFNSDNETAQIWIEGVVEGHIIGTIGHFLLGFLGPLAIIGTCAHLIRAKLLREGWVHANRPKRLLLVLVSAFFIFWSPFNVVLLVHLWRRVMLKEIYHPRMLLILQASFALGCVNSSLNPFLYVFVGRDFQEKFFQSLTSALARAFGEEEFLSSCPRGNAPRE

activation, inactive:
Cc1ccc(-n2c(SCc3ccccc3F)nc3[nH]ncc3c2=O)cc1Cl -23%
CCN(CC)CCNC(=O)C1CCN(C(=O)c2cnn(-c3ccccc3)c2-n2cccc2)CC1 -29.2%
COCCc1ccccn1 -2.29%
O=C(NCc1ccccc1)C1CCN(S(=O)(=O)Cc2ccccc2)CC1 5%
CCOC(=O)N1CCc2c(sc3c2C(=O)NC(c2ccc(N(C)C)cc2)N3)C1 (configuration not stated) -13.1%
Cc1ccc2nc(NC(=O)CSc3[nH]c(=O)ncc3C)sc2c1 -4.57%
Cc1ccc(NC(=O)CSc2nc(=O)cc(N)n2-c2ccccc2)cc1 -4.22%
CC(=O)NCCNC(=O)CCCn1c(=O)[nH]c2ccsc2c1=O -16.3%
CCCCOc1ccc(C2c3c(oc4ccc(C)cc4c3=O)C(=O)N2CCCN(C)C)cc1OCC (configuration not stated) -7.73%
O=Nc1ccc2oc(=O)ccc2c1 -14.8%
Cc1ccc(C)c(NS(=O)(=O)c2cc3c(cc2C)n(C)c(=O)c(=O)n3C)c1 0.269%
Cc1ccc(-n2c(/C=C/c3c(C)n(C)c4ccccc34)nc3ccccc3c2=O)cc1 -6.48%
CCN(CC)S(=O)(=O)c1cccc(C(=O)Nc2ccccc2C(=O)Nc2ccc(Cl)cc2)c1 -11.1%
COCCN(CCOC)S(=O)(=O)c1ccc(C(=O)Nc2sc3c(c2C(=O)OC)CCN(C)C3)cc1 -2%
CC(=O)c1ccc(NC(=O)c2cc(C)nn2-c2ccccc2)cc1 -13.7%
CCOC(=O)c1c(NC(=O)Cc2coc3cc(C)cc(C)c23)sc2c1CCC2 3.49%
COC(=O)c1c(NC(C)=O)c2c3c(sc2n1Cc1cc(C)ccc1C)CCCC3 -7.23%
O=[N+]([O-])c1ccc(CSc2ncnc3c2ncn3[C@@H]2O[C@H](CO)[C@@H](O)[C@H]2O)cc1 -7.11%
CN(C)S(=O)(=O)N(CC(=O)NCCSCc1c(F)cccc1Cl)c1ccccc1 38.4%
CCOC(=O)c1ccccc1NC(=O)c1sc2nc3n(c(=O)c2c1C)CCCCC3 -5.32%
CCCCN(CCCNC(=O)c1cc(Nc2cccc(SC)c2)nc2ccccc12)Cc1ccccc1 -18.1%
CCOc1cccc(C(=O)Nc2ccc(-c3nc4ncccc4o3)cc2C)c1 -1.12%
Cc1ccc(NC(=O)c2cc(S(=O)(=O)N3CCC4(CC3)OCCO4)ccc2F)cc1Cl -32.5%
Cc1ccc(S(=O)(=O)N2CCC(N3CCN(Cc4ccccc4)C(=O)C3=O)CC2)cc1C 27.6%
O=c1[nH]c(SCc2c(F)cccc2Cl)nc2c1CCC2 25%
Cc1cccc(-n2c(C)cc(C(=O)C(=O)Nc3ccccc3F)c2C)c1C -3.01%
CCCN1CCN(CCCNC(=O)c2cc3c(=O)n(CC)c4ccccc4c3s2)CC1 10%
COc1ccc(CC(=O)N2CCc3cc(OC)c(OC)cc3C2COc2ccc(F)cc2)cc1 (configuration not stated) -8.12%
COc1ccc(OC)c(NC(=O)c2oc(=O)c3ccccc3c2-c2ccccc2)c1 -8.86%
Cn1nc(-c2ccccc2F)c2cc(C(=O)NCc3ccccc3Cl)sc21 -3.22%
COc1cc2c(cc1OC)C(c1cccc(Cl)c1)CC(=O)N2 (configuration not stated) 49.9%
N#CCC(=O)NN 9.05%
COc1ccc(Cl)cc1NC(=O)N1CCN(S(=O)(=O)c2ccc3c(ccn3C)c2)CC1 -10%
CC(C)(C)OC(=O)N1CCC(c2c(C(=O)NCc3cccs3)cnn2-c2cccc(F)c2)CC1 -13.6%
CCOc1ccc(NCc2cccn2-c2nnc(N3CCC(C(=O)NCc4ccccc4Cl)CC3)s2)cc1 -24.3%
O=C(c1ccc(F)cc1)N1CCc2c([nH]c3ccccc23)C1c1ccc(Cl)cc1 (configuration not stated) -34.7%
CCc1ccc(OCCSc2nc3ccccc3n2CC(=O)N2CCCCC2)cc1 -32%
COc1ccccc1N1CCN(c2ncnc3c2c(-c2ccccc2)cn3-c2cccc(Cl)c2)CC1 -27.5%
CCc1nn(C(CC)C(=O)NCc2ccc(OC)c(OC)c2)c(=O)c2cc3oc(C)cc3n12 (configuration not stated) 18.2%
Cc1nn(-c2nc(-c3ccccc3)cc(C(F)(F)F)n2)c(C)c1Cl -13.7%
COc1cc(/C=C(\C#N)c2nc3ccc(C)cc3[nH]2)ccc1OCc1ccc(C)cc1 -3.21%
CCOc1ccc2c(c1)c(=O)c(C(=O)c1ccc3c(c1)OCO3)cn2Cc1ccc(F)cc1 -14.8%
CC(N)CCCC(C)(C)O (configuration not stated) -4.71%
CCCCNC(=O)c1cccc(NC(=O)c2nsc3ccccc23)c1 -9.14%
COc1ccc(S(=O)(=O)N2CCC(Oc3ccc(-n4cnnn4)cc3)CC2)cc1 3.56%
COc1cccc(OC)c1C(=O)NCCc1sc(-c2cccc(F)c2)nc1C 48.3%
CCN(C(=O)c1cn(-c2cccc(OC)c2)c(=O)c2ccccc12)c1ccccc1C -16%
CCc1ccc(C2C(C(=O)Nc3ccccc3OC)=C(C)Nc3c(C(=O)Nc4ccc(C)cc4)cnn32)cc1 (configuration not stated) -14.7%
CC(=O)Nc1ccc(NC(=O)c2nc(S(=O)(=O)Cc3ccc(F)cc3)ncc2Cl)cc1 -19.9%
COc1cccc(CNC(=O)c2cnc3c(-c4ccc(F)cc4)c(C)nn3c2C)c1 -14.8%
Cc1ccc(C)c(NC(=O)CSc2nccn2-c2cccc(C)c2C)c1 10.9%
COc1ccc(C(=O)Nc2ccccc2-c2nc3ccccc3s2)cc1OC 8.11%
COc1ccc(-n2c(SCC(=O)NCc3ccc(Cl)cc3)nc3ccsc3c2=O)cc1 -2.55%
COc1ccc(-n2nnnc2C2CCN(S(=O)(=O)c3cccc(C(F)(F)F)c3)CC2)cc1 -2.43%
COc1cccc(NC(=O)C(Cc2ccccc2)N2Cc3ccccc3C2=O)c1 (configuration not stated) -1.64%
COc1nccnc1NS(=O)(=O)c1ccc(N)cc1 -6.01%
Cc1ccc(NC(=O)CCCc2nc(-c3ccco3)no2)cc1Cl -14.1%
COc1ccc(NS(=O)(=O)c2ccc(N3CCCCS3(=O)=O)cc2)cc1Cl 11.8%
CC(C)CCOc1ccc(C(=O)NCC2OCCc3ccccc32)cc1 (configuration not stated) 24.8%
COc1ccc(-c2noc(CCC(=O)N(C)c3cc(Cl)ccc3OC)n2)cc1 30%
COc1cccc(-n2c(=O)c3cc(OC)c(OC)cc3n(CC(=O)Nc3ccc(F)cc3)c2=O)c1 1.17%
CCCn1c2ccc(F)cc2c2nnc(SCCN3CCCCC3)nc21 -18.5%
CCC(=O)N1CCc2cc(Br)cc(S(=O)(=O)CCC(=O)Nc3cccc(Cl)c3)c21 -5.52%
CCCc1cnc2c(c1SCC(=O)Nc1ccccc1OCC)c(=O)n(C)c(=O)n2C -6.83%
CCS(=O)(=O)N1CCCc2cc(C(=O)Nc3cccc(C(C)=O)c3)ccc21 13.7%
COc1cc(NC(=O)c2cccc(Cl)c2Cl)ccc1NC(=O)c1cc2ccccc2o1 4.08%
CCOc1ccc(C(=O)N(Cc2ccc(C(C)C)cc2)Cc2ccco2)cc1 -13.5%
Clc1ccc(-c2nnn3c2nc(NC2CCCCC2)c2ccccc23)cc1 -5.09%
CCOc1ccc(Nc2ncnc3c2c(-c2ccccc2)cn3-c2cccc(C)c2)cc1 -13.5%
Cc1cc2c(cc1NS(=O)(=O)c1ccc(Br)cc1)n(C)c(=O)c(=O)n2C -12.3%
CC(C)(C)c1ccc(S(=O)(=O)/C=C/C#N)cc1 -24.6%
Cc1cccc(C)c1NC(=O)CN1CCCC1 -11.8%
CCCSCCCNC(=O)c1ccc(C)c(NC(=O)c2nsc3ccccc23)c1 -23.3%
CCOc1ccc(CCn2c3c(c(=O)[nH]c2=O)C(NC(=O)c2cccc(F)c2)(C(F)(F)F)C(=O)N3)cc1OCC (configuration not stated) 2.89%
Cc1c(CCNC(=O)c2c(F)cccc2F)sc2nc(-c3ccc(F)cc3)nn12 -22%
CC(=O)N(c1onc(C)c1C)S(=O)(=O)c1ccc(N)cc1 26.1%
COc1cc(-c2nc3sccn3c2Nc2c(C)cccc2C)ccc1O -17%
Cc1cc(O)cc(C)c1Cl 25.1%
O=C(Cc1ccc(-c2ccccc2)cc1)NCCS(=O)(=O)N1CCN(c2ccc(F)cc2)CC1 -7.33%
Cn1ncc2c(N3CCN(c4ccc(F)cc4)CC3)ncnc21 14.2%
CC(=O)N1CCCc2ccc(NS(=O)(=O)c3cccc(Cl)c3)cc21 0.338%
O=C1Cc2cc(S(=O)(=O)N3CCN(c4cccc(Cl)c4)CC3)ccc2N1 -6.64%
CC(=O)N1CCCC1c1nc2ccccc2n1Cc1ccccc1Cl (configuration not stated) -36.2%
Cc1cc(Nc2ccc(Br)cc2)nc(C)n1 -7.53%
Cc1cccc(C)c1-n1ncc(C(=O)NCCCN2CCC(C)CC2)c1C1CCN(C(=O)OC(C)(C)C)CC1 -11.1%
CCC1CN(C(=O)N2CCC(C(=O)NCCc3ccc(OC)cc3OC)CC2)c2cc(C)ccc2O1 (configuration not stated) -23.4%

activation, active:
COc1ccc(N2CCN(S(=O)(=O)c3ccc(F)c(C(=O)Nc4ccccc4Cl)c3)CC2)cc1 90.7%
